# Laboratory results from PMC6919601, “Identification of Plasmodium dipeptidyl aminopeptidase allosteric inhibitors by high throughput screening” (PLoS ONE, 2019).
# In all, about 110,000 compounds went through this assay and about 230 (0.21%) showed an effect of 50% or more. This is one part of the list.
# Molecular target: DPAP1 (Plasmodium falciparum, UniProt Q8IIJ9)
# Assay: primary screen, percent inhibition; read by cleavage of a fluorogenic dipeptide substrate; higher = more effect of the substance
# Parameters: species or system P. falciparum D10 trophozoite lysates; single well
# 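Also: 30 min substrate incubation versus DMSO and 10 µM JCP410 controls.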
# Sequence of DPAP1 (Q8IIJ9 whole entry, looked up): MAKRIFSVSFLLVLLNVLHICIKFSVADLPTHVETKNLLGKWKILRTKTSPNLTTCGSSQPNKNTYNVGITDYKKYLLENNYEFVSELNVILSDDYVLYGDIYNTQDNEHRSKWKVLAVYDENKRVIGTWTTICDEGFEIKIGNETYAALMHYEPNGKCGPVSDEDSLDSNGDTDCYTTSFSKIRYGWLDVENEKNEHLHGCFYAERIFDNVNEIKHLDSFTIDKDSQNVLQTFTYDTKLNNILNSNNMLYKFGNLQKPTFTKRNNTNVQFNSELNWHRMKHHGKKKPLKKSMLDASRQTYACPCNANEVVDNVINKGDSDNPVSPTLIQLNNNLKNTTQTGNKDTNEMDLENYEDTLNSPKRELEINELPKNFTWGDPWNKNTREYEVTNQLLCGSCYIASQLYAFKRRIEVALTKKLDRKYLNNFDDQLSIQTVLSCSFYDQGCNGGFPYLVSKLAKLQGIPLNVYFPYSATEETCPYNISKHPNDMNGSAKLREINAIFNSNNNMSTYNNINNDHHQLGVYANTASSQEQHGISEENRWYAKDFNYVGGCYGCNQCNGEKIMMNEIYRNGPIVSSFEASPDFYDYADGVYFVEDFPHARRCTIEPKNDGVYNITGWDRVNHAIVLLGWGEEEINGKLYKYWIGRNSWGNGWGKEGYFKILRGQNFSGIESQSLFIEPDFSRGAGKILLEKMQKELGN
row,SMILES,% Inhibition @ 10 uM
1,CCn1c(C)cc(/C=C2\SC(=O)N(CC(=O)Nc3ccc(C)c(C)c3)C2=O)c1C,-0.62%
2,Nc1ccc(O)c(-c2nc3cc(Cl)ccc3o2)c1,-3.65%
3,O=C1c2ccccc2C(Nc2ccc(Cl)cn2)N1Cc1ccccc1 (stereo not shown),0.66%
4,CCOC(=O)c1c(NS(=O)(=O)c2cc(OC)c(Cl)cc2OC)sc2c1CCCC2,7.25%
5,COc1ccc(CCN2C(=O)CC(N3CCN(Cc4ccc5c(c4)OCO5)CC3)C2=O)cc1OC (stereo not shown),4.44%
6,CN(C)c1nc(-c2ccccc2)c(C(=O)N2CCCC2)s1,-10.7%
7,CCOc1ccc(C(=O)N2CCc3ccccc32)cc1,-7.08%
8,CCOC(=O)c1[nH]c2ccccc2c1NC(=O)COC,0.813%
9,COc1ccccc1OCC(=O)NCCN1CCOCC1,1.52%
10,COC(=O)c1c(NC(=O)c2ccc(F)cc2)sc(C(=O)Nc2ccc(F)cc2)c1C,1.39%
11,Cc1nc2c(c(C)c1CCC(=O)NCc1cccnc1)c(=O)n(C)c(=O)n2C,0.44%
12,CC1=NN(c2ccccc2)C(=O)C1C(=O)c1ccc(F)cc1 (stereo not shown),-4.26%
13,COc1ccc(CNC(=O)C(CC2CCCCC2)C(=O)NCC#N)cc1 (stereo not shown),-0.214%
14,O=C1NC(=O)C(=Cc2ccc(N3CCOCC3)o2)C(=O)N1,-1.4%
15,COc1ccccc1C(=O)NC(=O)Nc1cc(C)nn1-c1cccc(F)c1,-0.403%
16,CN1C(=O)c2ccccc2C(C(=O)N2CCN(c3ccccn3)CC2)C1c1cccs1 (stereo not shown),-3.37%
17,COc1ccccc1N1C(=O)c2cccnc2C1=O,-3.09%
18,COc1ccc(OC)c(-n2nnc(-c3nc(-c4ccccc4F)no3)c2N)c1,0.6%
19,Cn1c(=O)c2cn(N)cc2n(C)c1=O,0.884%
20,CCc1ccc(OCC(=O)NC2CCCCC2)c(Br)c1,2.01%
21,Cc1sc(NC(=O)CSc2ncn(-c3ccccc3)n2)nc1-c1ccccc1,3.58%
22,COc1ccccc1OCC(=O)Nc1sc2c(c1C(N)=O)CCCC2,4.32%
23,Cc1ccc2c(c1)cc1c(=O)n(CC(=O)N3CCN(Cc4ccccc4)CC3)nc(C)n12,1.68%
24,Cc1ccc(S(=O)(=O)N(CC(=O)N(C)Cc2ccccc2)c2ccccc2C)cc1,8.26%
25,Cc1ccc(S(=O)(=O)N2CCN(Cc3ccccn3)CC2)cc1,-5.26%
26,Cn1c(=O)c2c(nc(SCc3nnc(N)s3)n2Cc2ccccc2Cl)n(C)c1=O,5.17%
27,CCOCCn1c(COc2ccc(OC)cc2)nc2ccccc21,1.08%
28,c1c2c(cc3c1OCO3)OCN(CC13CC4CC(CC(C4)C1)C3)C2,2.93%
